# Some of the results follow.
# B1: PX14343A-bvu-539-29-539 (Bacteroides vulgatus) (protein)
# chain: DSLTESSSNTFWQTPDDALMALASCYDALQSNQLYNSDQYSLGPLYMDCISDNGGHFNWSGWMEGYDMAMGIHTPSSSIIGSYWKDCYEVISRCNVLIANIDRVDMDASQKAIYQAEAKTIRALMYINLTMTYQDVPFLTAPLTIDEAECEKTDRAAIVAHVMTDLQDAAEVLPQNASSRGHITKGAALSLLGRVALYNEKWDDAIAAYKQVQGLGYSLDPSYAKLFTQSGETSPEIIFAVRYEGPGMSEGAAFNAHWNTPLEAMNGTIDLADAYYCKDGKPTTDTKIAELNGGGGLDVSKPNPAHFENRDPRLYSTLFVPGMLWNGKGGIDTSASNPYANVYGGAAASLSTVYVYKYFDPTDTSNSWDNGQDFYVVRYAEVLLSLAEAMVQKGGYVYSDVTALVNEVRQRADVNMPTVEEVEGTSLSKDELLEVIKHERRVELAFEGLRLFDLYRWKELDKAVANIENERTMYGLAYEARKFNGERDYVWPLPTAELDTNKKLVQHDLWK
# Legend:
# Test in all cases: glycan array binding signal (z-score within array); higher = stronger binding
# Settings in all cases: glycan notation: IUPAC condensed, linker removed
# [1] = target: Gal(a1-3)Gal(b1-4)GlcNAc(b1-2)Man
# Summary of the method: (§1)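 Glycan array data came from 3228 arrays in the Consortium for Functional Glycomics database, and only arrays with an available protein sequence were kept. Glycan names were put into IUPAC-condensed notation, and columns mapping to the same glycan were averaged. The binding signal is a within-array Z-score, averaged across arrays of one protein sequence run at different concentrations or buffers and across linkers. A negative Z-score can be read as non-binding.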
# [2] = target: Gal(a1-3)Gal(b1-4)GlcNAc(b1-2)Man(a1-3)[Gal(a1-3)Gal(b1-4)GlcNAc(b1-2)Man(a1-6)]Man(b1-4)GlcNAc(b1-4)GlcNAc
# Summary of the method: as §1
# [3] = target: Gal(a1-3)Gal(b1-4)GlcNAc(b1-3)GalNAc
# Summary of the method: as §1
# [4] = target: Gal(a1-3)Gal(b1-4)GlcNAc(b1-6)GalNAc
# Summary of the method: as §1
# [5] = target: Gal(a1-3)Gal(b1-4)[Fuc(a1-3)]GlcNAc
# Summary of the method: as §1
# [6] = target: Gal(a1-3)Gal(b1-4)[Fuc(a1-3)]GlcNAc(b1-2)Man(a1-3)[Gal(a1-3)Gal(b1-4)[Fuc(a1-3)]GlcNAc(b1-2)Man(a1-6)]Man(b1-4)GlcNAc(b1-4)GlcNAc
# Summary of the method: as §1
# Gal(a1-3)GalNAc = target: Gal(a1-3)GalNAc
# Summary of the method: as §1
# [7] = target: Gal(a1-3)[Gal(a1-4)]Gal(b1-4)GlcNAc
# Summary of the method: as §1
# [8] = target: Gal(a1-4)Gal(b1-3)GlcNAc(b1-2)Man(a1-3)[Gal(a1-4)Gal(b1-3)GlcNAc(b1-2)Man(a1-6)]Man(b1-4)GlcNAc(b1-4)GlcNAc
# Summary of the method: as §1
# Gal(a1-4)Gal(b1-4)Glc = target: Gal(a1-4)Gal(b1-4)Glc
# Summary of the method: as §1
# Gal(a1-4)Gal(b1-4)GlcNAc = target: Gal(a1-4)Gal(b1-4)GlcNAc
# Summary of the method: as §1
# [9] = target: Gal(a1-4)Gal(b1-4)GlcNAc(b1-2)Man(a1-3)[Gal(a1-4)Gal(b1-4)GlcNAc(b1-2)Man(a1-6)]Man(b1-4)GlcNAc(b1-4)GlcNAc
# Summary of the method: as §1
# [10] = target: Gal(a1-4)Gal(b1-4)GlcNAc(b1-3)Gal(b1-4)Glc
# Summary of the method: as §1
# Gal(a1-4)GlcNAc = target: Gal(a1-4)GlcNAc
# Summary of the method: as §1
# Gal(a1-6)Glc = target: Gal(a1-6)Glc
# Summary of the method: as §1
# Gal(b1-2)Gal = target: Gal(b1-2)Gal
# Summary of the method: as §1
# Gal(b1-3)Gal = target: Gal(b1-3)Gal
# Summary of the method: as §1
# Gal(b1-3)Gal(b1-4)GlcNAc = target: Gal(b1-3)Gal(b1-4)GlcNAc
# Summary of the method: as §1
# Gal(b1-3)GalNAc = target: Gal(b1-3)GalNAc
# Summary of the method: as §1
# [11] = target: Gal(b1-3)GalNAc(a1-3)[Fuc(a1-2)]Gal(b1-4)Glc
# Summary of the method: as §1
# [12] = target: Gal(b1-3)GalNAc(a1-3)[Fuc(a1-2)]Gal(b1-4)GlcNAc
# Summary of the method: as §1
# Gal(b1-3)GalNAc(b1-3)Gal = target: Gal(b1-3)GalNAc(b1-3)Gal
# Summary of the method: as §1
# [13] = target: Gal(b1-3)GalNAc(b1-3)Gal(a1-4)Gal(b1-4)Glc
# Summary of the method: as §1
# [14] = target: Gal(b1-3)GalNAc(b1-4)Gal(b1-4)Glc
# Summary of the method: as §1
# [15] = target: Gal(b1-3)GalNAc(b1-4)[Neu5Ac(a2-3)]Gal(b1-4)Glc
# Summary of the method: as §1
# Gal(b1-3)GlcNAc = target: Gal(b1-3)GlcNAc
# Summary of the method: as §1
# [16] = target: Gal(b1-3)GlcNAc(a1-3)Gal(b1-4)GlcNAc
# Summary of the method: as §1
# [17] = target: Gal(b1-3)GlcNAc(a1-6)Gal(b1-4)GlcNAc
# Summary of the method: as §1
# Gal(b1-3)GlcNAc(b1-2)Man = target: Gal(b1-3)GlcNAc(b1-2)Man
# Summary of the method: as §1
# [18] = target: Gal(b1-3)GlcNAc(b1-2)Man(a1-3)[Gal(b1-3)GlcNAc(b1-2)Man(a1-6)]Man(b1-4)GlcNAc(b1-4)GlcNAc
# Summary of the method: as §1
# [19] = target: Gal(b1-3)GlcNAc(b1-2)Man(a1-3)[Gal(b1-3)GlcNAc(b1-2)Man(a1-6)]Man(b1-4)GlcNAc(b1-4)[Fuc(a1-6)]GlcNAc
# Summary of the method: as §1
# [20] = target: Gal(b1-3)GlcNAc(b1-2)Man(a1-3)[GlcNAc(b1-4)][Gal(b1-3)GlcNAc(b1-2)Man(a1-6)]Man(b1-4)GlcNAc(b1-4)GlcNAc
# Summary of the method: as §1
# [21] = target: Gal(b1-3)GlcNAc(b1-2)[Gal(b1-3)GlcNAc(b1-6)]Man(a1-6)[Gal(b1-3)GlcNAc(b1-2)Man(a1-3)]Man(b1-4)GlcNAc(b1-4)GlcNAc
# Summary of the method: as §1
# [22] = target: Gal(b1-3)GlcNAc(b1-3)Gal(b1-3)GlcNAc
# Summary of the method: as §1
# [23] = target: Gal(b1-3)GlcNAc(b1-3)Gal(b1-4)Glc
# Summary of the method: as §1
# [24] = target: Gal(b1-3)GlcNAc(b1-3)Gal(b1-4)GlcNAc
# Summary of the method: as §1
# [25] = target: Gal(b1-3)GlcNAc(b1-3)Gal(b1-4)GlcNAc(b1-2)Man(a1-3)[Gal(b1-3)GlcNAc(b1-3)Gal(b1-4)GlcNAc(b1-2)Man(a1-6)]Man(b1-4)GlcNAc(b1-4)GlcNAc
# Summary of the method: as §1
binder,measurement,setting,value
B1,glycan array binding signal (z-score),[1],-0.226
same,glycan array binding signal (z-score),[2],-0.103
same,glycan array binding signal (z-score),[3],-0.358
same,glycan array binding signal (z-score),[4],0.952
same,glycan array binding signal (z-score),[5],-0.414
same,glycan array binding signal (z-score),[6],-0.051
same,glycan array binding signal (z-score),Gal(a1-3)GalNAc,-0.288
same,glycan array binding signal (z-score),[7],6.76
same,glycan array binding signal (z-score),[8],0.517
same,glycan array binding signal (z-score),Gal(a1-4)Gal(b1-4)Glc,-0.184
same,glycan array binding signal (z-score),Gal(a1-4)Gal(b1-4)GlcNAc,-0.281
same,glycan array binding signal (z-score),[9],2.41
same,glycan array binding signal (z-score),[10],-0.164
same,glycan array binding signal (z-score),Gal(a1-4)GlcNAc,0.11
same,glycan array binding signal (z-score),Gal(a1-6)Glc,-0.383
same,glycan array binding signal (z-score),Gal(b1-2)Gal,0.085
same,glycan array binding signal (z-score),Gal(b1-3)Gal,-0.212
same,glycan array binding signal (z-score),Gal(b1-3)Gal(b1-4)GlcNAc,0.494
same,glycan array binding signal (z-score),Gal(b1-3)GalNAc,-0.237
same,glycan array binding signal (z-score),[11],-0.143
same,glycan array binding signal (z-score),[12],-0.445
same,glycan array binding signal (z-score),Gal(b1-3)GalNAc(b1-3)Gal,-0.511
same,glycan array binding signal (z-score),[13],-0.229
same,glycan array binding signal (z-score),[14],-0.346
same,glycan array binding signal (z-score),[15],-0.016
same,glycan array binding signal (z-score),Gal(b1-3)GlcNAc,-0.258
same,glycan array binding signal (z-score),[16],-0.396
same,glycan array binding signal (z-score),[17],0.016
same,glycan array binding signal (z-score),Gal(b1-3)GlcNAc(b1-2)Man,-0.168
same,glycan array binding signal (z-score),[18],0.765
same,glycan array binding signal (z-score),[19],-0.134
same,glycan array binding signal (z-score),[20],0.067
same,glycan array binding signal (z-score),[21],1.13
same,glycan array binding signal (z-score),[22],-0.196
same,glycan array binding signal (z-score),[23],-0.279
same,glycan array binding signal (z-score),[24],-0.247
same,glycan array binding signal (z-score),[25],0.308

# Reference: the supplement of paper PMC8728848
